Test results: PubChem BioAssay AID493208 (National Center for Advancing Translational Sciences (NCATS), 2011)
The whole screen tested about 44,000 compounds, of which about 340 (0.77%) were called active. About 5% were inconclusive and are not listed. Calls follow the shape of the dose curve; as a rule, active = well fitted inhibition curve with a large enough effect; inconclusive = small, poorly fitted or top-dose-only effect; inactive = flat fitted curve, though single readings scatter. This is one part of the list.
Potency is read from the fitted curve at half-maximal effect.

Assay: Acumen qHTS Assay for Inhibitors of the mTORC1 Signaling Pathway in MEF (Tsc2-/-, p53-/-) Cells: Sytravon; also: nearly all actives have a fitted effect of over 50% in size;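 as to activity change, negative = inhibition: plate controls were DMSO for no effect and rapamycin for full effect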
Conditions: phospho-rpS6 immunofluorescence/PI, 24 h; series mostly up to 38.3 µM; activity change, negative = inhibition: at the top concentration
Outline: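 Compounds act on Tsc2-/-, p53-/- fibroblasts carrying an empty vector for 24 h before fixation and dual staining for phospho-S6 and DNA (propidium iodide). Values are percentages of cells above a rapamycin-defined pS6/PI threshold.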
With `CNC(=O)CN1C(=O)c2cccnc2Sc2ccccc21` the “activity change, negative = inhibition” value was inactive: 3.84%. For `CCNC(=O)c1cnc2c(-c3ccccc3)c(C)nn2c1C`, the “activity change, negative = inhibition” value was inactive: -0.224%. For `CC(C)CCn1c(=O)c2sccc2n2c(CCCC(=O)NC(C)C)nnc12`, the “activity change, negative = inhibition” value was inactive: 0.438%. For `COc1ccc(-c2nc3cc(C)ccn3c2NC(=O)c2ccc(C)c(C)c2)cc1`, the “activity change, negative = inhibition” value was inactive: 2.71%. For `COc1ccc(-n2c(=O)c3c4c(sc3n(Cc3ccccc3Cl)c2=O)CCC4)c(OC)c1`, the “activity change, negative = inhibition” value was inactive: -2.44%. With `COc1cccc(CNC(=O)CN(C)S(=O)(=O)c2ccc3[nH]c4c(c3c2)CCCC4)c1` the “activity change, negative = inhibition” value was inactive: -3.87%. For `CCOc1ccccc1CNC(=O)C1CCCN(c2ncnc3onc(-c4ccc(F)cc4)c23)C1` (configuration not stated), the “activity change, negative = inhibition” value was inactive: -0.675%. For `CCCCOc1ccc(CN2C(=O)C(=O)c3cc(Br)cc(C)c32)cc1OC`, the Potency was active: 9.27 µM. With `Cc1cccc(C)c1-n1ncc(C(=O)Nc2ccc3c(c2)OCO3)c1C1CCN(C(=O)OC(C)(C)C)CC1` the “activity change, negative = inhibition” value was inactive: -13%. With `COc1cccc(-c2cc(C(F)(F)F)nc(NCCc3ccccc3)n2)c1` the “activity change, negative = inhibition” value was inactive: 1.5%. With `Cc1ccc(CN2CCc3nc(N4CCN(c5ccccc5F)CC4)ncc3C2)cc1C` the “activity change, negative = inhibition” value was inactive: 9.2%. In the case of `COc1ccccc1CCNC(=O)c1ccc2c(c1)c(C)c(C)n2Cc1ccc(Cl)cc1`, the “activity change, negative = inhibition” value was inactive: -0.767%. With `O=C(NCc1ccccc1Cl)C1CCCN(C(=O)c2cnn(-c3ccccc3)c2-n2cccc2)C1` (configuration not stated) the “activity change, negative = inhibition” value was inactive: 1.31%. With `Cc1ccc2c(c1)-c1nc(-c3ccc4c(c3)NC(=O)CO4)cc(-c3ccc(F)cc3)c1CO2` the “activity change, negative = inhibition” value was inactive: 1.45%. In the case of `O=C(CSc1nnc(-c2ccc(O)cc2)o1)c1ccc(Br)cc1`, the “activity change, negative = inhibition” value was inactive: -1.57%. With `COc1ccccc1C(=O)Nc1c(C(=O)N(C)Cc2ccccc2)sc2nc(C)c(Cl)c(C)c12` the “activity change, negative = inhibition” value was inactive: 1.57%. With `Cc1ccccc1-c1nnc(CN2CCN(c3ccccn3)CC2)o1` the “activity change, negative = inhibition” value was inactive: -2.39%. In the case of `COc1ccc(-c2noc(-c3ccc(N4CCN(C)CC4)c([N+](=O)[O-])c3)n2)cc1OC`, the “activity change, negative = inhibition” value was inactive: -1.56%. For `CCOC(=O)c1ccc(NC(=O)N2CCOc3ccccc32)cc1`, the “activity change, negative = inhibition” value was inactive: 4.59%. With `COCCCNC(=O)C(=O)Nc1c2c(nn1-c1cccc(Cl)c1)CSC2` the “activity change, negative = inhibition” value was inactive: -4.77%. In the case of `CNC(=O)Cn1cc(S(=O)(=O)Cc2ccccc2F)c2ccccc21`, the “activity change, negative = inhibition” value was inactive: 4.48%. For `COC(=O)c1c(-c2cccs2)csc1NC(=O)COc1c(C)ccc(C)c1C`, the “activity change, negative = inhibition” value was inactive: 1.16%. In the case of `CCOc1ccc(CCNC(=O)c2cnc3sc(N4CCC(C)CC4)nn3c2=O)cc1`, the “activity change, negative = inhibition” value was inactive: 5.05%. With `COc1ccc(-c2oc3ncn4nc(COc5c(C)cccc5C)nc4c3c2-c2ccc(OC)cc2)cc1` the “activity change, negative = inhibition” value was inactive: -8.29%. In the case of `Cc1nn(C(=O)c2ccccc2F)c(C)c1S(=O)(=O)N1CCCCCC1`, the “activity change, negative = inhibition” value was inactive: -2.76%. In the case of `CCCCCSc1nc2sc3c(c2c(=O)n1-c1ccccc1)CCN(C(C)=O)C3`, the “activity change, negative = inhibition” value was inactive: -1.73%. With `CCOc1ccccc1NC(=O)N1CCc2cc(S(=O)(=O)N3CCC(C)CC3)ccc21` the “activity change, negative = inhibition” value was inactive: -3.09%.
